The source gives no read counts; variants with many changes may rest on few reads.
B1: LINE1-mini (parent)
chain: GGCAGAGCUCAACACAGCGUGGCAAAGUGGCUGUGGCUAGACUGCC

Variants of: B1
Assay: self-cleavage, relative activity (ratio to wild type); higher = more cleavage; in vitro, sequencing; the parent is a self-cleaving ribozyme
For A6U G7C C31A, the self-cleavage was 0.03.
A6U G7C C42G showed a self-cleavage of 0.02.
In the case of A6U G7C G17U G22C A24U U28C C37A, the self-cleavage is reported as 0.07.
With A6U G7C U38A the self-cleavage was 0.09.
Work on A6U G7U A26G yielded a self-cleavage of 0.03.
With A6U G7U C10G A16U G17C C45U the self-cleavage was 0.01.
Work on A6U G7U C10U G17A yielded a self-cleavage of 0.02.
A6U G7U G33U gave a self-cleavage of 0.26.
With A6U G7U U32G C37A the self-cleavage was 0.05.
A6U G7U U34G showed a self-cleavage of 0.03.
Variant A6U G17A G22U G29U G36A G40A C45U has a self-cleavage of 0.12.
Work on A6U G17A G29A yielded a self-cleavage of 0.44.
In the case of A6U G17A G30A, the self-cleavage is reported as 0.24.
For A6U G17C C37U, the self-cleavage was 0.11.
Work on A6U G17C G19U G29U yielded a self-cleavage of 0.19.
A6U G17C G22C G40C gave a self-cleavage of 0.05.
With A6U G17C U32A G33C the self-cleavage was 0.01.
With A6U G17U A24U the self-cleavage was 0.09.
Work on A6U G17U C18G U34C U38A yielded a self-cleavage of 0.07.
A6U G17U G27C A41U showed a self-cleavage of 0.12.
In the case of A6U G17U G27U, the self-cleavage is reported as 0.03.
Variant A6U G19A G21C U28G has a self-cleavage of 0.35.
Variant A6U G19A G29A has a self-cleavage of 1.41.
For A6U G19C A24U G40U C42G C45G, the self-cleavage was 0.02.
With A6U G19C U20A G29U G30U C37G the self-cleavage was 0.1.
Variant A6U G19U C45G has a self-cleavage of 0.38.
A6U G19U G30U showed a self-cleavage of 1.34.
A6U G19U G40C gave a self-cleavage of 0.17.
Work on A6U G19U U20A U28G yielded a self-cleavage of 0.38.
With A6U G21A C23A G40A G44U the self-cleavage was 1.03.
Work on A6U G21A U28A C31A G36C yielded a self-cleavage of 0.48.
Variant A6U G21C C23U G29U has a self-cleavage of 0.35.
A6U G21C G33A C37A showed a self-cleavage of 0.12.
For A6U G21C G40C C46U, the self-cleavage was 0.06.
A6U G21C G44C showed a self-cleavage of 0.23.
For A6U G21U A26G G36A, the self-cleavage was 0.02.
For A6U G21U C31U G33U, the self-cleavage was 0.04.
With A6U G21U C46A the self-cleavage was 0.65.
With A6U G21U G29C the self-cleavage was 0.18.
For A6U G21U G30A A41U, the self-cleavage was 0.23.
A6U G22A A26C showed a self-cleavage of 0.36.
In the case of A6U G22A A41C, the self-cleavage is reported as 0.03.
Variant A6U G22C A24U has a self-cleavage of 0.45.
Variant A6U G22C G27A C45U has a self-cleavage of 0.45.
Variant A6U G22U G29U C37A G40U has a self-cleavage of 0.14.
A6U G22U G35A A39U showed a self-cleavage of 0.14.
A6U G22U G36A gave a self-cleavage of 0.47.
For A6U G27A C31A C45G, the self-cleavage was 0.47.
For A6U G27A U28A U34C G36A, the self-cleavage was 0.03.
With A6U G27C U34C the self-cleavage was 0.12.
In the case of A6U G27C U34C G35A G36A, the self-cleavage is reported as 0.52.
Work on A6U G27U G36U yielded a self-cleavage of 0.18.
For A6U G29C C42U, the self-cleavage was 0.05.
With A6U G29U G35A G44C the self-cleavage was 0.11.
With A6U G29U G35C A41G C42A the self-cleavage was 0.04.
In the case of A6U G30A C31U U38G, the self-cleavage is reported as 0.02.
In the case of A6U G30C G33A, the self-cleavage is reported as 0.
For A6U G30C G33A C42G, the self-cleavage was 0.02.
Variant A6U G30U U32C U43C has a self-cleavage of 0.04.
Work on A6U G33A C46A yielded a self-cleavage of 0.03.
In the case of A6U G33C C37A, the self-cleavage is reported as 0.02.
In the case of A6U G33C C42G, the self-cleavage is reported as 0.03.
Work on A6U G33C U34A yielded a self-cleavage of 0.14.
For A6U G35A U38A C42G, the self-cleavage was 0.01.
For A6U G35A U38G, the self-cleavage was 0.01.
Variant A6U G35U C37A has a self-cleavage of 0.22.
A6U G36A C37U showed a self-cleavage of 0.05.
For A6U G36U G40A, the self-cleavage was 0.04.
A6U G40C C45U gave a self-cleavage of 0.04.
With A6U G40U A41U the self-cleavage was 0.01.
With A6U U9A A12G C18U U38A the self-cleavage was 0.02.
Work on A6U U9A A12U C18U G19A G35A yielded a self-cleavage of 0.06.
In the case of A6U U9A A14G C31G, the self-cleavage is reported as 0.02.
Variant A6U U9A C13A A24C has a self-cleavage of 0.07.
In the case of A6U U9A C15G C31U, the self-cleavage is reported as 0.01.
A6U U9A C15G C42A gave a self-cleavage of 0.02.
A6U U9A C23A U34C gave a self-cleavage of 0.07.
In the case of A6U U9A G22A, the self-cleavage is reported as 0.05.
For A6U U9A G22U G30A C37A, the self-cleavage was 0.16.
Work on A6U U9A G27C A39G yielded a self-cleavage of 0.02.
A6U U9A G40A U43A gave a self-cleavage of 0.13.
Work on A6U U9A U20C G36C yielded a self-cleavage of 0.06.
Work on A6U U9C A12U A24C A39C yielded a self-cleavage of 0.03.
A6U U9C C15A G40C gave a self-cleavage of 0.04.
With A6U U9C G29C G33A the self-cleavage was 0.04.
With A6U U9C U43C the self-cleavage was 0.05.
With A6U U9G A11U G19U the self-cleavage was 0.01.
For A6U U9G A11U G35U G44U, the self-cleavage was 0.01.
A6U U9G A16C G36C C37A showed a self-cleavage of 0.04.
In the case of A6U U9G A26G U28A, the self-cleavage is reported as 0.17.
With A6U U9G A41C the self-cleavage was 0.02.
For A6U U9G C10U G21A A24U G29A G30U C31A U34C, the self-cleavage was 0.
Variant A6U U9G C18A G27C A39C has a self-cleavage of 0.25.
In the case of A6U U9G G27A, the self-cleavage is reported as 0.02.
A6U U9G U20A G30C C42U showed a self-cleavage of 0.03.
For A6U U9G U32A, the self-cleavage was 0.02.
Variant A6U U9G U32A C42G has a self-cleavage of 0.02.
For A6U U20A A24C A26C G30A, the self-cleavage was 0.14.
A6U U20A C23A U43G showed a self-cleavage of 0.33.
A6U U20A G21C C46U showed a self-cleavage of 0.63.
With A6U U20A G35A G36A the self-cleavage was 0.49.
A6U U20A U34G G35U gave a self-cleavage of 0.28.
A6U U20C A25C G33A showed a self-cleavage of 0.03.
A6U U20C A26C C45G gave a self-cleavage of 0.03.
A6U U20C A26G gave a self-cleavage of 0.44.
For A6U U20C A41C, the self-cleavage was 0.02.
A6U U32A U34C gave a self-cleavage of 0.04.
Work on A6U U32G G40U yielded a self-cleavage of 0.22.
Work on A6U U38G A39C yielded a self-cleavage of 0.03.
With G7A A11C A24U the self-cleavage was 0.02.
In the case of G7A A11C A25G G35U, the self-cleavage is reported as 0.01.
Work on G7A A11C G27A U28C yielded a self-cleavage of 0.02.
Work on G7A A11C G40U G44U yielded a self-cleavage of 0.02.
G7A A11C U20A G22C A25G showed a self-cleavage of 0.01.
G7A A11G A14G U20A C42G G44U showed a self-cleavage of 0.03.
For G7A A11G A25U U38C, the self-cleavage was 0.03.
G7A A11G G35A U38A gave a self-cleavage of 0.02.
For G7A A11G G40A, the self-cleavage was 0.
Variant G7A A11G U28C has a self-cleavage of 0.
Variant G7A A11G U28G C37A has a self-cleavage of 0.01.
G7A A11U C18G G19U G36A gave a self-cleavage of 0.01.
G7A A11U C45U showed a self-cleavage of 0.05.
For G7A A11U G22A U28A, the self-cleavage was 0.02.
G7A A12C A16U C23G C42U C46G showed a self-cleavage of 0.01.
Work on G7A A12C A24C yielded a self-cleavage of 0.04.
Work on G7A A12C C13A G19U G22C A26U U34G yielded a self-cleavage of 0.02.
G7A A12C C23A showed a self-cleavage of 0.04.
Work on G7A A12C G17A A26C U32C yielded a self-cleavage of 0.01.
G7A A12C G17C G44C showed a self-cleavage of 0.01.
For G7A A12C G19C, the self-cleavage was 0.12.
For G7A A12C U28C C45U, the self-cleavage was 0.
Variant G7A A12G A14G U20C A24C A25G U34C has a self-cleavage of 0.04.
G7A A12G A25G G30A showed a self-cleavage of 0.03.
Variant G7A A12G C15U C18G C37A has a self-cleavage of 0.18.
Work on G7A A12G G21A yielded a self-cleavage of 0.04.
In the case of G7A A12G G21U, the self-cleavage is reported as 0.03.
In the case of G7A A12G U34G, the self-cleavage is reported as 0.01.
G7A A12U A14C gave a self-cleavage of 0.16.
G7A A12U C13A G17U C23A U34C C37A showed a self-cleavage of 0.12.
With G7A A12U C23U C31A the self-cleavage was 0.05.
In the case of G7A A12U G19U G36A, the self-cleavage is reported as 0.03.
Work on G7A A14C A24G yielded a self-cleavage of 0.1.
For G7A A14C C37G, the self-cleavage was 0.17.
Variant G7A A14C C46U has a self-cleavage of 0.07.
G7A A14C G19A G44C gave a self-cleavage of 0.06.
Variant G7A A14C G21A A25U C31A G36C C37U A41C has a self-cleavage of 0.17.
G7A A14C G21U G40C gave a self-cleavage of 0.04.
For G7A A14C U20G C37U, the self-cleavage was 0.09.
For G7A A14G A25C, the self-cleavage was 0.03.
With G7A A14G C15G U34A C46G the self-cleavage was 0.06.
Variant G7A A14G C31U has a self-cleavage of 0.04.
Work on G7A A14G U34A yielded a self-cleavage of 0.07.
Variant G7A A14U C15U G21U U34C has a self-cleavage of 0.79.
In the case of G7A A14U G21C G33A, the self-cleavage is reported as 0.07.
Work on G7A A14U G35C yielded a self-cleavage of 0.11.
Work on G7A A14U U32C yielded a self-cleavage of 0.32.
With G7A A16C A24U C42G the self-cleavage was 0.05.
G7A A16C C23G showed a self-cleavage of 0.29.
For G7A A16C C37G U38C, the self-cleavage was 0.
Work on G7A A16C C42U yielded a self-cleavage of 0.15.
In the case of G7A A16C U28C G30C U43A, the self-cleavage is reported as 0.97.
G7A A16G C37G A41C gave a self-cleavage of 0.02.
Work on G7A A16G G27C U28G G35A U43A yielded a self-cleavage of 0.1.
G7A A16U A26U C37G showed a self-cleavage of 0.01.
Work on G7A A16U C18A G27A C31U C37A A41C yielded a self-cleavage of 0.01.
G7A A16U C23A A41C U43C showed a self-cleavage of 0.02.
G7A A16U C23U G40C A41G C42A showed a self-cleavage of 0.02.

From the RNAGym collection of RNA variant scans (doi:10.7554/elife.90254)
